These results are taken from the supplement of paper PMC10338343.

± gives the standard deviation. Whole data set: some 3,700 sequences, median “pre-steady-state target cleavage rate” near 0.02, cut for the highest 2% near 0.23. This is a selection; strong and weak results do not stand in their true shares.

The test system of the test is MILI (PIWIL2) piRISC loaded with Kctd7 piRNA (26 nt). Briefly: pre-steady-state target cleavage rate (min^-1); MIWI and MILI are mouse PIWI proteins and EfPiwi is from a freshwater sponge; tags in brackets are library labels; higher = faster piRNA-guided slicing of the target. Particulars: guide: Kctd7 piRNA 5'p-UGUUAAUCUCUCAGAGAAGGUGACAG; auxiliary factor: 500 nM mouse GTSF1. The procedure:
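Cleave-'n-Seq: a library of target RNAs (target site embedded in constant flanks, ACAGCATTCCGCGTTAGTGATATCCG... 5' flank; DNA-blocked outside the site) at 0.1 nM was incubated with 1 nM active mouse MILI or MIWI piRISC (synthetic 5'-monophosphorylated piRNA guide) with or without 500 nM mouse GTSF1 at 33 °C for 1 min to 16 h. Uncleaved targets were sequenced and normalised to non-target controls, and the pooled three trials were fitted to a burst-and-steady-state model to give the pre-steady-state cleavage rate (min^-1; k3 is constrained to at most 1e-4). Sequence is the target site only; target names encode pairing extent (gX:gY) and contiguous / 1-mismatch / 2-mismatch / bulge geometry. Fits with R² ≤ 0 are excluded.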
For UAGUGACAGUGGAUCUCUGAGAGAUAUAACA, the “pre-steady-state target cleavage rate” value is under 0.0001.
Under UAGUCUGUCACCUUCCUGAGAGAUUAACA stands 0.0844 ± 0.028.
Turning to UAGUGACUCACCAUUCUCUGAGAGAUUAACA, the “pre-steady-state target cleavage rate” value came out at 0.0839 ± 0.012.
Under UAGUGACAGUCCUUCUCUGUGAGAUAAACA stands 0.00912 ± 0.0029; under UAGUGACAGACGUUCACUGAGAGAUUAACA, 0.0472 ± 0.0065; under UAGUGACAGUGCUUCUCUGAGAGAUUAAUA, 0.0297 ± 0.0083.
For UAGUGAGUCUCCUUCUCUCAGAGAUUAACA the value was 0.0352 ± 0.0067.
For UAGUGACAGUGGUUCUCUGUCAGAUUAACA the value was under 0.0001; for UAGUGACACACCUUCUAUGAGAGAUUAACA, 0.0667 ± 0.017.
Turning to UAGUGACUCACCUUCUCUGAGAGACUUAACA, the “pre-steady-state target cleavage rate” value amounted to 0.138 ± 0.018.
For UAGUGACAGACGUUCUCAGAGAGAUUAACA the value was 0.0148 ± 0.0047; for UAGUCUGUCACGAUCUCUGAGAGAUUAUGA, 0.0053 ± 0.004.
Take UAGUGACACACCUUCUUCUGAGAGAUUAACA: the “pre-steady-state target cleavage rate” value came to 0.015 ± 0.0069.
Under UAGUCUGUCCCCUUCUCUGAGAGAUUAACA stands 0.208 ± 0.017.
Consider UAGUGACAGUGGAAGUCUGACACAUUAACA, for which the “pre-steady-state target cleavage rate” value is under 0.0001.
As for UAGUGACAGUGGAUGUCUGAGAGAUUAUCA, the “pre-steady-state target cleavage rate” value is under 0.0001.
Under UAGUGACAGUGGAAGAGAGAGAGAUUGAACA stands under 0.0001.
Under UAGUGAGACACCUUCUCUGACAGAUUAACA stands 0.0413 ± 0.0077.
Under UAGUGACACAGCUUCUCUGUGAGAUUAACA stands 0.0271 ± 0.0057.
Turning to UAGUGACACACCUUCUCUGAGAGAUAUUCA, the “pre-steady-state target cleavage rate” value is 0.0197 ± 0.0083.
For UAGUGUGUGACCUUCACUGAGAGAUUAACA the value was 0.108 ± 0.013; for UAGUGACUCACCUUGUCUGAGAGAUUAUGA, 0.0194 ± 0.0092; for UAGUGACAGUGGAAGUCUGAGAGAUCAACA, under 0.0001.
Under UAGUGUGUCACCUUCUCUGUGAGAUUAUCA stands 0.0478 ± 0.015; under UAGUCUGUCACCUUCUCUGAGAGAUUUUGA, 0.0133 ± 0.0061.
For UAGUGAGUCACGAUCUCUGAGAGAUUAACA the value was 0.161 ± 0.012; for UAGUGACUCACCUUCUGUGAGAGAAUAACA, 0.0221 ± 0.008.
Consider UAGUGACAGUGGUUCUUUGAGAGAUUAACA, for which the “pre-steady-state target cleavage rate” value turned out to be 0.00806 ± 0.0018.
For UAGUGACUCACCUUCUCUGAGAGAUUAUCA the value was 0.198 ± 0.034; for UAGUCUGUCACCUUCUCUGUGAGAUAAACA, 0.037 ± 0.0096.
Under UAGUGAGUCACCUUCUCUGAAAGAUUAACA stands 0.0887 ± 0.014; under UAGUCUGACACCUUCACUGAGAGAUUAACA, 0.135 ± 0.014.
Under UAGUGACAGUCCUUCUCUGUGAGAUUAAGA stands 0.00748 ± 0.0028; under UAGUCUGUCACGUUCUCUGAGAGAUUUACA, 0.0757 ± 0.01.
With UAGUGACUCACCUUCUCUGACGAGAUUAACA, the “pre-steady-state target cleavage rate” value was found to be 0.00371 ± 0.0031.
For UAGUGAGUGUGCUUCUCUGAGAGAUUAACA the value was 0.0669 ± 0.0076; for UAGUGAGUCACCUCUCUCUGAGAGAUUAACA, 0.194 ± 0.017.
Under UAGUGUGUCACCUUCACUGAGAGAUUAUCA stands 0.0765 ± 0.026; under UAGUCUCACACCUUCUCUGAGAGAUUAACA, 0.144 ± 0.0092.
For the sequence UAGUGACUGUGCUUCUCUGAGAGAUUAUGA, the “pre-steady-state target cleavage rate” value was 0.00569 ± 0.0029.
For UAGUGACAGUGGAAGACUGAGAGCAUUAACA the value was under 0.0001; for UAGUGUGUCACCUUCUCUGUGAGUUUAACA, 0.0386 ± 0.0085; for UAGUGAGUCACCUUCUGAGAGAGAUUUUGA, 0.011 ± 0.0064.
Under UAGUGACUCACGCUUCUCUGAGAGAUUAACA stands 0.0763 ± 0.0094; under UAGUGAGUCACCUUCACUGACAGAUUAACA, 0.0411 ± 0.013; under UAGUGACACACCUUCUCUAGAGAUUAACA, 0.00513 ± 0.004.
Under UAGUGACACACCUUCUCUCAGAGAUUAUCA stands 0.0338 ± 0.011; under UAGUGUGUCACCAUCUCUGAGAGAUUAUGA, 0.0243 ± 0.0082.
UAGUGAGACACCUACUCUGAGAGAUUAACA: the “pre-steady-state target cleavage rate” value came to 0.158 ± 0.011.
Under UAGUGACAGUCCUUCCUCUGAGAGAUUAACA stands 0.0786 ± 0.0098; under UAGUGACACACCUUUCUGAGAGAUUAACA, 0.0339 ± 0.014.
Under UAGUGACUCACCUUCACAGAGAGAUUAACA stands 0.035 ± 0.0049.
Under UAGUCUGUCACCUUCUACUGAGAGAUUAACA stands 0.199 ± 0.056.
Turning to UAGUGACAGUGGAAGACUGAGAGAUUAAUCA, the “pre-steady-state target cleavage rate” value is under 0.0001.
Under UAGUGACACUACCUUCUCUGAGAGAUUAACA stands 0.108 ± 0.011.
For UAGUGACACACCUACUCUGAGAGAUUAACA the value was 0.111 ± 0.0077; for UAGUGACAGUGCGUCUCUGAGAGAUUAACA, 0.00616 ± 0.0019; for UAGUGUGUCUCCUUCUCUGAGAGAUUAUGA, 0.00861 ± 0.005.
Under UAGUGACAGUGCUUCUCUGCGAGAUUAACA stands 0.00673 ± 0.0023.
With UAGUGACUCACCUUCUCUGUGAGAAUAACA, the “pre-steady-state target cleavage rate” value is 0.00982 ± 0.0038.
Turning to UAGUCUGUGACCUUCUCUGUGAGAUUAACA, the “pre-steady-state target cleavage rate” value is 0.0376 ± 0.0027.
For UAGUGACUCACCUUCUCUGAGAGAAUAUCA the value was 0.0103 ± 0.0052.
For UAGUGAGUCACGUUCUGUGAGAGAUUAACA the value was 0.106 ± 0.0071.
For UAGUGACAGUGCUUGUCUGAGAGAUUUACA the value was 0.00774 ± 0.0035; for UAGUGUCUCACCUUCUCUGAGAGAUUAAGA, 0.114 ± 0.033.
As for UAGUGACAGUGCUUCUCUGAAAGAUUAACA, the “pre-steady-state target cleavage rate” value was determined as 0.00938 ± 0.0031.
On to UAGUGACUCACCUUAUCUGAGAGAUUAACA, for which the “pre-steady-state target cleavage rate” value worked out at 0.125 ± 0.011.
Under UAGUCUGUCACCUUCUCUGAGAGUUAAACA stands 0.328 ± 0.096.
As for UAGUGUGUCACCUUGUCUGAGAGAUAAACA, the “pre-steady-state target cleavage rate” value was determined as 0.00975 ± 0.005.
For UAGUGUGUCACCUUCUCUGAGAGUUUAUGA the value was 0.0769 ± 0.038.
UAGUGACACACCUUCUGUGAGUGAUUAACA: the “pre-steady-state target cleavage rate” value amounted to 0.0105 ± 0.0042.
Take UAGUGACUCUCCUUCUCUGAGAGAUUAAGA: the “pre-steady-state target cleavage rate” value stood at 0.0164 ± 0.0068.
